Over roughly 110,000 compounds, “z-score” has its median near -0.1; the highest 2% begin near 2. Some of the results follow. Calls of active or inactive are those of the source.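 The calls were made as follows: active = z-score in the third read window above 3 or below -3; inactive = the rest.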
Target: Metabotropic glutamate receptor 8 (Rattus norvegicus) (UniProt P70579)
Experiment: mGluR8 Gi/Go-coupled signaling modulation – cell-based, rat, thallium flux, HTS, primary screen (AID 488969)
Conditions: HEK293 rat mGluR8, GIRK (G protein-gated inwardly rectifying potassium channel) thallium flux, FluoZin2; at 10 µM; stronger effect = higher value; submaximal glutamate (EC20) added with thallium

Chain of UniProt P70579 (P70579 whole entry, looked up): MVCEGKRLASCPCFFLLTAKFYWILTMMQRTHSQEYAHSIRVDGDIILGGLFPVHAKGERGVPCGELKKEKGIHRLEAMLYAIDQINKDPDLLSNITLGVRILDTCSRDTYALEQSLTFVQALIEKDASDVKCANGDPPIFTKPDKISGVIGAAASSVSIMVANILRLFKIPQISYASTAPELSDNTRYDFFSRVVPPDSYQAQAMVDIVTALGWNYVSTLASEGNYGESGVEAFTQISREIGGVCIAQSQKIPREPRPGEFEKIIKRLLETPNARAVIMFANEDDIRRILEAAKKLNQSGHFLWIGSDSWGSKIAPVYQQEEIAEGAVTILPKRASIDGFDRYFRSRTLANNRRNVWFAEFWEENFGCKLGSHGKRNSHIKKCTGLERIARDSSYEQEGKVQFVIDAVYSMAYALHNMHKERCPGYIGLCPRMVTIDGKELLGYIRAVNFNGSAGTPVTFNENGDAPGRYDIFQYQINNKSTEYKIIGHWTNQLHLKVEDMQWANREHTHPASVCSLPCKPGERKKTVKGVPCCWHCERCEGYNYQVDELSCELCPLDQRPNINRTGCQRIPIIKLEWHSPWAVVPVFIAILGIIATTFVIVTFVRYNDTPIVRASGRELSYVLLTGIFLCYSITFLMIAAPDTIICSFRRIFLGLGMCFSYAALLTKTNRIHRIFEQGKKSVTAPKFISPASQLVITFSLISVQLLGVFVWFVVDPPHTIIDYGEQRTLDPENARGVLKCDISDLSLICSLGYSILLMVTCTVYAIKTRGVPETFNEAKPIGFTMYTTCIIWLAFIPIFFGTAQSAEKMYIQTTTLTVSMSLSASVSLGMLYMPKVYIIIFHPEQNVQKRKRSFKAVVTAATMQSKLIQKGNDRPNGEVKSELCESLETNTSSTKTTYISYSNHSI

SMILES | z-score
CC(C)(C)C1CCc2onc(C(=O)Nc3cccc(O)c3)c2C1 (centres undefined) | -0.218
CCc1ccc(Nc2nnc(SCC(=O)Nc3cccnc3Cl)s2)cc1 | -0.477
CC1CN(C(=O)c2ccc(CNS(=O)(=O)c3cccc(C(F)(F)F)c3)cc2)CC(C)O1 (centres undefined) | 0.192
CCOc1ccc(C2C=C(c3ccc(F)cc3)Nc3ncnn32)cc1 (centres undefined) | -1.34
CCc1ccc(NC(=O)CS(=O)CC(=O)NCCCc2ccccc2)cc1 (centres undefined) | -0.695
CCCCCOc1ccc(NC(=O)C(=O)NCCC2=CCCCC2)cc1 | -0.0173
COC(=O)C1=C(C)N=C2SC(C#N)=C(N)N2C1c1cc(OC)c(OC)c(OC)c1 (centres undefined) | -0.0707
CCOC(=O)c1sc(C)c2c1NC1(CCCCCC1)NC2=O | 0.0807
CCOC(=O)C(C)Oc1cccc2c(=O)n(CC(=O)NCc3ccco3)ccc12 (centres undefined) | 1.28
COc1ccc2sc(N3C(=O)CC(Cc4cccc(C)c4)C3=O)nc2c1 (centres undefined) | -0.0213
Cc1ccc(S(=O)(=O)n2cnc3ccccc32)c(C)c1 | -0.214
Cc1cccc(Nc2n[nH]c(=S)s2)c1C | -0.0559
CC(Oc1cccc(F)c1)C(=O)/C=C\N(C)C (centres undefined) | -0.0867
Cc1ccc(NC(=O)c2ccc(OC(=S)N3CCOCC3)cc2)cc1 | -0.252
c1ccc(Cn2ccnc2SCc2nnc(-c3ccccc3)o2)cc1 | 0.735
O=S(=O)(NC1CCCC1)c1cccc(S(=O)(=O)N2CCC(n3nnc4ccccc43)CC2)c1 | 0.212
Cc1ccc2nsnc2c1S(=O)(=O)N(Cc1cc2cccc(C)c2[nH]c1=O)CC1CCCO1 (centres undefined) | 0.0318
CN(Cc1ccccc1)S(=O)(=O)c1ccc2[nH]cc(C(=O)NCC3CCCO3)c(=O)c2c1 (centres undefined) | 0.0786
O=C(NNC(=O)c1cc(-c2ccccc2)n(-c2ccccc2)n1)c1cccc([N+](=O)[O-])c1 | active: 6.49
COc1ccc(-c2c(C#N)c(N)nc3sc(C(=O)c4ccc(C)cc4)c(N)c23)cc1 | -0.27
Cc1ccc(-c2noc(CCC(=O)NC3CCN(Cc4ccccc4)CC3)n2)cc1 | 2.02
COc1ccc(OC)c(NC(=O)c2cc3n(n2)C(C(F)(F)F)CC(c2ccc4c(c2)OCO4)N3)c1 (centres undefined) | -0.557
Cc1ccc(S(=O)(=O)N2CCN(C(=O)COc3ccc(-c4nnco4)cc3)CC2)cc1 | 1.66
CC1CCCN(c2c([N+](=O)[O-])c(=O)oc3ccccc23)C1 (centres undefined) | -0.991
Cc1nnc(N(Cc2ccco2)C(=O)c2cccc(C#N)c2)s1 | -0.293
Cc1cc(C)nc(Sc2ccc([N+](=O)[O-])cc2[N+](=O)[O-])n1 | 0.0784
N#CCCNC(=O)CCN1CCOCC1 | 0.396

SMILES | z-score
Cc1ccc(Oc2ccc(S(=O)(=O)N3CCOCC3)cc2C(N)=O)c(-n2nc3ccccc3n2)c1 | 0.0127
O=C(Nc1ccccc1)ON=C1CCCC1 | 0.427
COc1ccc(NCN2C(=O)CCC2=O)cc1 | -0.415
COc1ccc2c(c1)cc(C)c1nnc(SCC(=O)N(C)c3nc(-c4ccccc4)cs3)n12 | -0.134
c1ccc(C(c2ccccc2)N2CCN(Cc3nnnn3C3CCCCC3)CC2)cc1 | 0.164
CCN(CC)C(=O)Oc1ccccc1NC(C)=O | -0.282
CC(=O)Nc1cc(S(=O)(=O)Nc2cccc(C)c2)c(C)cc1C | -0.268
Cc1cccc(CNCc2ccccc2)c1 | 0.308
O=C(NC(NC(=S)Nc1ccccc1O)C(Cl)(Cl)Cl)c1ccco1 (centres undefined) | 0.576
Cc1cc(C)c2nc(SCC(=O)NCCC3=CCCCC3)cc(C)c2c1 | active: 3.98
CCCC1CC(C)(c2csc(Nc3ccc(OCC)cc3)n2)OC1=O (centres undefined) | 0.0704
CC(C)NC(=O)CSc1nnc(-c2ccncc2)n1-c1ccccc1 | 0.211
O=C(NCc1cccnc1)c1ccc2c(=O)n(CCCN3CCCC3=O)c(=S)[nH]c2c1 | -0.116
Cc1ccccc1NC(=O)/C(C#N)=C/c1ccccc1C(F)(F)F | -0.118
O=C(CC(=O)N/N=C/c1ccc(Cl)cc1Cl)NCc1ccccc1 | -0.103
Cc1c(/C=N/NC(=O)c2ccc3c(c2)OCO3)cnn1C | -0.062
c1ccc2c(c1)[nH]c1c(N3CCSCC3)ncnc12 | -0.335
Cc1ccc(N=Cc2sccc2C)cc1C | 0.192
Cc1ccc(C(=O)n2c3ccccc3c3ccccc32)cc1 | 0.214
N#C/C(=C\C=C\c1ccccc1)c1nc(-c2ccc3c(c2)OCO3)cs1 | -1.12
COCCNC(=O)c1ccc2snnc2c1 | -0.116
CCCNC(=S)Nc1ccc(CC(=O)OC)cc1 | 0.529
CC1CCC(C(=O)NC(C(=O)NCCCN2CCOCC2)C(C)C)CC1 (centres undefined) | 0.277
N#Cc1c(-c2ccco2)nc(NCC2CCCO2)[nH]c1=O (centres undefined) | -0.706
COc1cc(/C=N/O)cc(Br)c1OCc1ccc(Cl)cc1 | 0.305
Cc1ccccc1Nc1nc(CSc2nnnn2-c2ccccc2)cs1 | -0.404
COc1ccc(-c2cc(C(F)(F)F)nc(SCC(=O)NCc3ccco3)n2)cc1OC | -0.172

Reference: PubChem BioAssay AID488969 (Vanderbilt High Throughput Screening Facility, 2010)
